{
  "source": "PubChem BioAssay AID686979",
  "about": "(National Center for Advancing Translational Sciences (NCATS), 2013)",
  "note": "About 50,000 (12%) of roughly 420,000 compounds were called active. The shares of active, inactive and inconclusive entries below differ from those in the screen. Calls follow the shape of the dose curve; as a rule, active = well fitted inhibition curve with a large enough effect; inconclusive = small, poorly fitted or top-dose-only effect; inactive = flat fitted curve, though single readings scatter. No potency is given beside an inconclusive call; the fits are too rough. % is scaled to controls: 0 for no effect and ±100 for the full control effect; potency is read from the fitted curve at half-maximal effect; tags tell the direction and shape of the fitted curve.",
  "data": [
    {"experiment": "qHTS for Inhibitors of human tyrosyl-DNA phosphodiesterase 1 (TDP1): qHTS in cells in presence of CPT; also: nearly all actives have a fitted effect of over 55% in size", "settings": "chicken DT40 Tdp1-/-;hTDP1 cells + 20 nM CPT, ATP luminescence, 48 h; activity change, negative = growth inhibition: at 46.2 µM (top of the series) unless noted", "in_short": "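Cell growth measured by CellTiter-Glo luminescence after a minimum 48 h, 37 C compound exposure with 20 nM CPT in Tdp1-knockout DT40 cells stably expressing hTDP1, seeded 400/well; qHTS titration format.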", "values": [
      {"smiles": "OC1(c2cccnc2)CCN(Cc2ccc3c(c2)CN(Cc2cccc(C(F)(F)F)c2)CCO3)CC1", "activity change, negative = growth inhibition": "inactive: -21.9% [at 9.04 µM]"},
      {"smiles": "Cc1ccc2c(CC(=O)NNC(=O)c3ccccc3O)coc2c1", "Potency": "inconclusive [inhibitor, single point]"},
      {"smiles": "O=C(NNc1cc(N2CCOCC2)nc(N2CCOCC2)n1)C12CC3CC(CC(C3)C1)C2", "activity change, negative = growth inhibition": "inactive: 7.64%"},
      {"smiles": "O=C1[C@H](Cc2ccccc2)NCCCC[C@H](c2ccc(Cl)cc2)N1Cc1ccc(Cl)cc1", "Potency": "active: 23.1 µM"},
      {"smiles": "CCOc1ccccc1NC(=O)CSc1nnc(-c2ccco2)o1", "Potency": "inconclusive [inhibitor, single point]"},
      {"smiles": "C/C(=N\\Nc1nc(N)cc(Cl)n1)c1ccc(F)cc1", "activity change, negative = growth inhibition": "inactive: 0.572%"},
      {"smiles": "CCS(=O)(=O)Nc1ccc(C2=NN(C(C)=O)C(c3cccs3)C2)cc1", "note": "(stereo not drawn)", "Potency": "active: 4.11 µM"},
      {"smiles": "CN(C)c1ccc(C(CC(=O)O)C(=O)O)cc1", "note": "(stereo not drawn)", "activity change, negative = growth inhibition": "inactive: -3.14%"},
      {"smiles": "COc1ccc(C2CC(c3ccncc3)=NN2c2ccc(S(N)(=O)=O)cc2)cc1", "note": "(stereo not drawn)", "activity change, negative = growth inhibition": "inactive: -14.7%"},
      {"smiles": "S=c1[nH]nc(CCSCc2ccccc2)n1-c1ccccc1", "Potency": "inconclusive [inhibitor, single point]"},
      {"smiles": "COc1ccccc1NC(=S)N/N=C1\\CC(C)(C)Oc2ccc(O)cc21", "Potency": "inconclusive [inhibitor, single point]"},
      {"smiles": "CCc1ccc(NC(=O)Cn2c(=O)n(Cc3ccc(C)cc3)c(=O)c3cccnc32)cc1", "Potency": "inconclusive [inhibitor, partial curve, poor fit]"},
      {"smiles": "CC(=O)c1ccc(N2CCN(C(=O)/C=C/c3ccc(S(=O)(=O)NCc4ccco4)cc3)CC2)cc1", "Potency": "active: 20.6 µM"},
      {"smiles": "O=C(Nc1ccc(C(=O)N2CCOCC2)cc1)C1CCC1", "activity change, negative = growth inhibition": "inactive: -0.681%"},
      {"smiles": "CCOC(=O)c1c(CSc2ccccc2)n(C)c2ccc(O)c(CN3CCOCC3)c12", "Potency": "inconclusive [inhibitor, single point]"},
      {"smiles": "CC(=O)N1CCCc2cc(S(=O)(=O)N3CCC(C(=O)N(C)C4CCCCC4)CC3)ccc21", "Potency": "inconclusive [inhibitor, single point]"},
      {"smiles": "COc1cccc(C(=O)Nc2cccnc2)c1", "activity change, negative = growth inhibition": "inactive: -26.2%"},
      {"smiles": "COc1ccccc1NC(=O)CN1CCN(CC(=O)Nc2ccc(F)cc2)CC1", "activity change, negative = growth inhibition": "inactive: -20.6%"},
      {"smiles": "Cc1ccc(C)c(OCCn2c(=O)c3c(ncn3C3CCCC3)n(Cc3ccccc3)c2=O)c1", "Potency": "inconclusive [inhibitor, single point]"},
      {"smiles": "COc1ccc(/C=N/NC(=O)CNC(=O)c2ccc3c(c2)OCCO3)c(C(=O)O)c1OC", "activity change, negative = growth inhibition": "inactive: -1.94%"},
      {"smiles": "CN(c1ccc(C(=O)N2CCCCC2)cc1)S(C)(=O)=O", "activity change, negative = growth inhibition": "inactive: -22.1%"},
      {"smiles": "Cc1csc(NC(=O)CSc2nnc(-c3ccncc3)o2)n1", "Potency": "inconclusive [inhibitor, single point]"},
      {"smiles": "COc1ccc(C(=O)Nc2cccc(NC(C)=O)c2)cc1OC", "Potency": "inconclusive [inhibitor, single point]"},
      {"smiles": "CC1=C(C(=O)Nc2ccccc2C)C2(CCCC2)C(C(N)=O)C(=O)N1", "note": "(stereo not drawn)", "Potency": "inconclusive [inhibitor, single point]"},
      {"smiles": "COc1ccc(OC)c(CCNC(=O)c2cnn(-c3ccccc3)c2-n2cccc2)c1", "Potency": "active: 23.1 µM"},
      {"smiles": "O=C(CSc1nc2c(c(=O)n1-c1ccc(Cl)cc1)SCC2)N1CCCC1", "Potency": "inconclusive [inhibitor, single point]"},
      {"smiles": "CSc1ccccc1C(=O)Nc1nc2ccccc2[nH]1", "activity change, negative = growth inhibition": "inactive: 1.56%"},
      {"smiles": "COc1ccccc1NS(=O)(=O)c1cccc(C(=O)N/N=C/c2cn(-c3ccccc3)nc2-c2ccccc2)c1", "Potency": "inconclusive [inhibitor, single point]"},
      {"smiles": "CCCCCCC(=O)N/N=C/c1ccc(Br)cc1", "activity change, negative = growth inhibition": "inactive: 2.7%"},
      {"smiles": "CCC(=O)C1CCCN(C(=O)CCc2nnc(-c3ccc(C(C)=O)s3)o2)C1", "note": "(stereo not drawn)", "activity change, negative = growth inhibition": "inactive: -13%"},
      {"smiles": "CCC(C)(C)c1ccc(OCCCC[n+]2cccc(C)c2)c(C(C)(C)CC)c1", "Potency": "active: 0.58 µM"},
      {"smiles": "CNC(=O)C1CCN(C(=O)N2CC(C)Oc3ccc(Cl)cc32)CC1", "note": "(stereo not drawn)", "activity change, negative = growth inhibition": "inactive: -1.17%"},
      {"smiles": "COc1cc(C(=O)Nc2ccccc2N2CCCCC2)cc(OC)c1OC", "Potency": "inconclusive [inhibitor, single point]"},
      {"smiles": "COc1ccc(CCC(=O)Nc2c(-c3ccc(N(C)C)cc3)[nH][nH]c2=O)cc1", "Potency": "inconclusive [inhibitor, single point]"},
      {"smiles": "CC1=C(C(=O)OC(C)(C)C)C(c2ccco2)C(C#N)=C(N)O1", "note": "(stereo not drawn)", "Potency": "inconclusive [inhibitor, single point]"},
      {"smiles": "Cc1ccccc1C1c2[nH]c3ccccc3c2CCN1C(=O)c1ccc(=O)n(C)n1", "note": "(stereo not drawn)", "Potency": "inconclusive [inhibitor, single point]"},
      {"smiles": "Cc1ccc(S(=O)(=O)N2CCN(c3nc(-c4cccnc4)nc4ccccc34)CC2)cc1", "Potency": "active: 12.6 µM"},
      {"smiles": "CCOc1ccc2nc3cc(N=Nc4ccc(N)nc4N)ccc3c(N)c2c1", "Potency": "active: 5.8 µM"},
      {"smiles": "Cc1cc(Br)ccc1SCC(=O)OCC(=O)NC(C)c1ccccc1", "note": "(stereo not drawn)", "activity change, negative = growth inhibition": "inactive: -14.3%"},
      {"smiles": "CCCCCC(=O)Nc1nc(C)c(-c2csc(Nc3ccc(Cl)cc3)n2)s1", "Potency": "inconclusive [inhibitor, single point]"},
      {"smiles": "Cc1nnc2c3ccccc3nc(N3CCN(c4ccccc4)CC3)n12", "Potency": "inconclusive [inhibitor, single point]"},
      {"smiles": "Cc1ccc2cc(CCNC(=O)c3ccc4c(c3)OCO4)c(=O)[nH]c2c1", "Potency": "inconclusive [inhibitor, single point]"},
      {"smiles": "CN(C)CCCNC(=O)c1ccccc1Oc1ccccc1", "activity change, negative = growth inhibition": "inactive: 2.09%"},
      {"smiles": "COc1ccc(-c2cc(=O)oc3c(C)c(OC(C)C(=O)Nc4ccc(CN5CCOCC5)cc4)ccc23)cc1", "note": "(stereo not drawn)", "Potency": "inconclusive [inhibitor, single point]"},
      {"smiles": "CN(C)N1C(=O)CC(N2CCCC2)C1=O", "note": "(stereo not drawn)", "Potency": "inconclusive [inhibitor, single point]"},
      {"smiles": "O=C(/C=C/c1ccc([N+](=O)[O-])s1)N1CCCCC1", "Potency": "inconclusive [inhibitor, single point]"},
      {"smiles": "CC(=O)Oc1ccccc1C1OCCN1C(C)=O", "note": "(stereo not drawn)", "activity change, negative = growth inhibition": "inactive: 0.785%"},
      {"smiles": "COC(=O)c1c(C)[nH]c(O)c1C=Nc1ccc(Oc2ccccc2)cc1", "activity change, negative = growth inhibition": "inactive: -23.7%"},
      {"smiles": "CCOC(=O)C1CCCN(C(=O)c2ccccc2NC(=O)c2nsc3ccccc23)C1", "note": "(stereo not drawn)", "Potency": "active: 16.4 µM"},
      {"smiles": "CS(=O)(=O)N1N=C(c2cccs2)CC1c1ccco1", "note": "(stereo not drawn)", "Potency": "inconclusive [inhibitor, single point]"},
      {"smiles": "CCOc1ccc2nc(NC(=O)CSc3nc4ccccc4c(=O)n3Cc3ccco3)sc2c1", "Potency": "inconclusive [inhibitor, single point]"},
      {"smiles": "Cc1ccccc1Cn1nnc2c(=O)[nH]c(C3CCCN(C(=O)c4ccc(C(C)(C)C)cc4)C3)nc21", "note": "(stereo not drawn)", "Potency": "inconclusive [inhibitor, single point]"},
      {"smiles": "CCOc1ccc(C(=O)NCC2(c3ccccc3)CCOCC2)cc1", "Potency": "inconclusive [inhibitor, single point]"},
      {"smiles": "Clc1ccc(/C=C/c2ncc[nH]2)c(Cl)c1", "activity change, negative = growth inhibition": "inactive: -25.6%"},
      {"smiles": "O=C(c1ccc2c(c1)N(Cc1cccc(Cl)c1)C(=O)c1ccccc1S2(=O)=O)N1CCCC1", "Potency": "active: 23.1 µM"},
      {"smiles": "O=C(c1cnccn1)N1CCC[C@@]2(CCN(c3cccc(-c4ccccc4)c3)C2)C1", "Potency": "inconclusive [inhibitor, single point]"},
      {"smiles": "OCCN1CCN(c2ncnc3c2ncn3[C@H]2CN(Cc3ccccc3)C[C@@H](CO)O2)CC1", "Potency": "inconclusive [inhibitor, partial curve]"},
      {"smiles": "O=C(CN1CCN(S(=O)(=O)c2ccc(F)cc2)CC1)Nc1cccc(C(F)(F)F)c1", "Potency": "inconclusive [inhibitor, single point]"},
      {"smiles": "Cc1c(C)c2ccc(OC(C)C(=O)N3CC[C@@]4(O)CCCC[C@H]4C3)cc2oc1=O", "note": "(stereo partly drawn)", "Potency": "inconclusive [inhibitor, partial curve]"},
      {"smiles": "Cc1ccc(S(=O)(=O)N2C(=O)[C@@H]3Cc4ccccc4CN3C2=O)cc1", "Potency": "inconclusive [inhibitor, single point]"},
      {"smiles": "O=C(Nc1ccnn1C1CCN(Cc2ccn[nH]2)CC1)c1ccccc1", "activity change, negative = growth inhibition": "inactive: -5.68%"},
      {"smiles": "Cc1cccc(NC(=O)CSc2nccn2Cc2ccco2)c1", "activity change, negative = growth inhibition": "inactive: 4.08%"},
      {"smiles": "COc1ccc(CC(=O)NNC(=O)c2ccco2)cc1", "activity change, negative = growth inhibition": "inactive: -0.999%"},
      {"smiles": "Cn1c(CN2CCCCC2)nc2cc(NC(=O)c3cccs3)ccc21", "Potency": "inconclusive [inhibitor, single point]"},
      {"smiles": "O=C(Cn1cc(SCc2ccc(F)cc2)c2ccccc21)N1CCCCCC1", "Potency": "inconclusive [inhibitor, single point]"},
      {"smiles": "CCCCNC(=O)c1nc(C2CCN(S(=O)(=O)c3csc(C(=O)O)c3)CC2)oc1-c1ccccc1", "activity change, negative = growth inhibition": "inactive: -5.87%"},
      {"smiles": "Cc1cccc(C)c1NC(=O)CSc1nnc(CCCCCNC(=O)OC(C)(C)C)o1", "Potency": "active: 14.6 µM"},
      {"smiles": "Cc1cccc(OCCSc2nc3c([nH]2)c(=N)ncn3Cc2ccccc2)c1", "Potency": "active: 20.6 µM"},
      {"smiles": "Cc1ccc2c(c1)CN(CCNC(=O)c1cccc(Cn3cccn3)c1)CC(C)O2", "note": "(stereo not drawn)", "activity change, negative = growth inhibition": "inactive: 4.3% [at 9.04 µM]"},
      {"smiles": "N#Cc1c(-c2ccccc2)cc(-c2ccccc2)nc1SCC(O)CS(=O)(=O)Cc1ccccc1", "note": "(stereo not drawn)", "Potency": "active: 10.3 µM"},
      {"smiles": "CCOC(=O)N1CCC(Nc2c(-c3ccccc3)c(=O)c2=O)CC1", "Potency": "inconclusive [inhibitor, single point]"},
      {"smiles": "O=C(CCc1ccccc1)N1CCN(C(=O)CCc2ccccc2)CC1", "activity change, negative = growth inhibition": "inactive: 1.29%"},
      {"smiles": "CCCCNc1c(-c2ccc(F)cc2)nc2nc(C)cc(C)n12", "Potency": "inconclusive [inhibitor, single point]"}
    ]}
  ]
}
